Test results published in PubChem BioAssay AID504332 (National Center for Advancing Translational Sciences (NCATS), 2011).
Out of some 350,000 compounds screened, about 31,000 (8.9%) were called active. The inconclusive results got no clear call from the source; some entries with a clear call stand among them for comparison. The call rests on the fitted dose curve; in most records, active means well fitted inhibition curve with a large enough effect; inconclusive means small, poorly fitted or top-dose-only effect; inactive means no such curve, though single readings can be large or run the other way. Potencies of inconclusive entries are doubtful fits and often do not repeat.

Target: Histone-lysine N-methyltransferase EHMT2 (Homo sapiens) (UniProt Q96KQ7)
Chain of UniProt Q96KQ7 (Q96KQ7 whole entry, looked up): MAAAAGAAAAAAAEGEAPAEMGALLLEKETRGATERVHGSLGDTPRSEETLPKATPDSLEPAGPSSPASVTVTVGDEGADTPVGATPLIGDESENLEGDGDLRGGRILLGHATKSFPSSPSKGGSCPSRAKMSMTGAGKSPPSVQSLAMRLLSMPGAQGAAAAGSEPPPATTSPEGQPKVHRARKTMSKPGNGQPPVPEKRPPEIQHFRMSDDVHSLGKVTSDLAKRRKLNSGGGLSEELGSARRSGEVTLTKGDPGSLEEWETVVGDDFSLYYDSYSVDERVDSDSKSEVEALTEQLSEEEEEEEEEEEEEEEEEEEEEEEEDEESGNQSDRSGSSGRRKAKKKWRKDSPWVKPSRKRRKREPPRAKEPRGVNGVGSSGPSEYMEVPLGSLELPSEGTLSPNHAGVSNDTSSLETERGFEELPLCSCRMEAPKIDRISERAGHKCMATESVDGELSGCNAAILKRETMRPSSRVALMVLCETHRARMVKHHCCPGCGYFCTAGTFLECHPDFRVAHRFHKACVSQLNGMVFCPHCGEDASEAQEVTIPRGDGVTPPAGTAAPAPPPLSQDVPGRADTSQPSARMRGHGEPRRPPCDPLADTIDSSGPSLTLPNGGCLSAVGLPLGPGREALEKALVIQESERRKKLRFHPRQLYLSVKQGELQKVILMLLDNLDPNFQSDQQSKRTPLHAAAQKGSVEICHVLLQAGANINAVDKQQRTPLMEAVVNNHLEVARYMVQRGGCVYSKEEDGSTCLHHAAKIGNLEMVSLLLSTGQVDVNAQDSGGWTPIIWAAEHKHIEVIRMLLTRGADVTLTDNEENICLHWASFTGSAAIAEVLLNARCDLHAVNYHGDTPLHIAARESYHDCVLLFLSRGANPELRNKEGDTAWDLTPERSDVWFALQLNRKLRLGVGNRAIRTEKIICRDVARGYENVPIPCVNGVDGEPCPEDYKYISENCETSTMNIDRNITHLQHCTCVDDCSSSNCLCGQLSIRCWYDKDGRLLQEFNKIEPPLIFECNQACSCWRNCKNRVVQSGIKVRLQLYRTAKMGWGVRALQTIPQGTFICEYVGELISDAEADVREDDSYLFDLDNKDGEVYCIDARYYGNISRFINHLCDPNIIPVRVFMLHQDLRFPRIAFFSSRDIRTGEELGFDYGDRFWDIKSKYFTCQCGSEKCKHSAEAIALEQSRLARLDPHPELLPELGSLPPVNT
Test: qHTS Assay for Inhibitors of Histone Lysine Methyltransferase G9a; further: nearly all actives have a fitted effect of over 75% in size
Conditions: G9a H3K9 monomethylation, AlphaScreen, 2 h; activity, negative = inhibition: at 59 µM (top of the series) unless noted
In short: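 Readings reflect AlphaScreen signal from monomethyl-H3K9 antibody detection. HMT at 20 nM; substrate b-H3K9 500 nM; cofactor SAM 20 uM; 2 h RT reaction; compounds tested as titrations in qHTS with 15 min preincubation.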
On the % scale 0 is the no-effect control and ±100 the full control effect; potency means the concentration at half of the fitted maximal effect; tags describe the fitted curve by direction and shape.

Compound | Potency | activity, negative = inhibition
CCC(NC(=O)Nc1cc(OC)ccc1OC)c1c(-n2cccc2)sc2c1CCN(CC)C2 (stereo not drawn) | active: 14.1 µM | 
O=C(CN1CCN(C(=O)c2ccco2)CC1)Nc1ccc2c(c1)OCCO2 | active: 50.1 µM | 
CCN(C(=O)c1cc2c(=O)n3cccc(C)c3nc2s1)c1ccc(C)c(C)c1 |  | inactive: 28.3%
Cc1ccccc1CNC(=O)Cn1cnc(S(=O)(=O)N2CCCC2)c1 | inconclusive: 50.1 µM [inhibitor, partial curve] | 
Cc1nnc(NC(=O)CSc2nc(N)c(NC(=O)c3cccs3)c(=O)[nH]2)s1 | inconclusive: 70.8 µM [inhibitor, partial curve] | 
CCC(=O)Nc1ccc2nc3c(=O)n(C)c(=O)n(C)c3nc2c1 |  | inactive: 9.62%
CSc1ccccc1NC(=O)c1cc2ncc(Br)cn2n1 | active: 35.5 µM | 
CCOc1cc(C2NC(=O)N(C)C(C)=C2[N+](=O)[O-])ccc1OC(C)=O (stereo not drawn) |  | inactive: -29.5% [at 102 µM]
COc1ccc(C2(c3ccc(O)cc3O)CC(c3ccccc3Cl)NC(=S)N2)cc1 (stereo not drawn) | inconclusive: 39.8 µM [inhibitor, full curve] | 
O=C1NC(c2cccs2)Nc2sc3c(c21)CCCC3 (stereo not drawn) |  | inconclusive: -117% [inhibitor]
CCCCCCCC(=O)NC(Nc1ccc(S(N)(=O)=O)cc1)C(Cl)(Cl)Cl (stereo not drawn) |  | inactive: 0.0711%
CC(NC(=O)[C@H](Cc1c[nH]c2ccccc12)NC(=O)[C@@H]1Cc2ccccc2CN1)c1ccccc1 (stereo partly drawn) | inconclusive: 89.1 µM [inhibitor, single point] | 
CN1CC2=Cc3ccccc3OC23Oc2ccccc2C=C3C1 | inconclusive: 50.1 µM [inhibitor, partial curve, poor fit] | 
CCOC(=O)c1c(/N=C/N(C)C)sc(C=O)c1-c1ccccc1 |  | inactive: 6.93% [at 102 µM]
Cc1ccc(-n2c(C)cc3c2CCCC3=O)cc1 | inconclusive: 28.2 µM [inhibitor, single point] | 
O=C(c1cc(-c2ccc3c(c2)OCO3)on1)N1CCN(c2ccccc2)CC1 | inconclusive: 50.1 µM [inhibitor, partial curve, poor fit] | 
CSc1cc(C)[nH]c(=O)n1 | inconclusive: 79.4 µM [inhibitor, partial curve, poor fit] | 
c1ccc2cc3c(NCCN4CCOCC4)ccnc3cc2c1 | inconclusive: 0.794 µM [inhibitor, full curve, poor fit] | 
COc1ccccc1C(=O)n1nc(-c2ccco2)nc1SC | inconclusive: 25.1 µM [inhibitor, single point] | 
CC(C)(C)Sc1ccc(/C=N/O)cc1[N+](=O)[O-] | inconclusive: 20 µM [inhibitor, partial curve] | 
O=C(Cn1c(=O)c2ccccc2n(CC(=O)Nc2ccc(F)cc2)c1=O)NCCc1ccccc1 |  | inactive: -14.1%
COc1ccc(N2CCN(C(c3cccs3)C(C)NC(=O)c3ccc4c(c3)OCO4)CC2)cc1 (stereo not drawn) | inconclusive: 44.7 µM [inhibitor, partial curve, poor fit] | 
COc1ccc(NC(=O)CN(C)C(=O)CCCc2nc3ccccc3s2)cc1 |  | inactive: 0.18% [at 102 µM]
CCCCn1c(N)c(N(CCOC)C(=O)COC(=O)/C=C/c2ccc(Br)cc2)c(=O)[nH]c1=O | inconclusive: 79.4 µM [inhibitor, single point] | 
COC(=O)c1ccccc1N=Nc1c(C)noc1C | inconclusive: 39.8 µM [inhibitor, partial curve] | 

Compound | Potency | activity, negative = inhibition
NC(=O)C1CN(S(=O)(=O)c2ccc(Cl)cc2F)c2ccccc2O1 (stereo not drawn) | active: 79.4 µM | 
Cc1cc(C(=O)OCC(=O)Nc2ncc(C(F)(F)F)cc2Cl)c(C)o1 | inconclusive: 31.6 µM [inhibitor, single point] | 
O=C(Nc1ccc2nc3n(c(=O)c2c1)CCCCC3)c1ccccn1 | active: 25.1 µM | 
CC1(C)CC(=O)C2=C(C1)N(c1cccc(O)c1)C1=C(C2)C(=O)CC(C)(C)C1 | active: 2.24 µM | 
COc1ccc(-c2nc3c4ccccc4n(CC(=O)N4CCN(c5ccc(F)cc5)CC4)c(=O)n3n2)cc1 |  | inactive: -2.96%
COc1cc(NC2c3ccccc3C(=O)N2Cc2ccc3c(c2)OCO3)cc(OC)c1 (stereo not drawn) | active: 50.1 µM | 
CCN(CC)CCN(C(=O)c1ccc2c(c1)OCCO2)c1nc2c(Cl)cccc2s1 | active: 50.1 µM | 
Cn1c(N)c(C(=O)COC(=O)c2ccnc3ccccc23)c(=O)n(C)c1=O | inconclusive: 89.1 µM [inhibitor, partial curve, poor fit] | 
CCOc1ccc(NC(=O)NCc2ccc3c(c2)CCN3C(C)=O)cc1 |  | inactive: 4.36%
CCOC(=O)N1CCC(NC(=O)CC2C(=O)NCCN2Cc2ccc(C)cc2)CC1 (stereo not drawn) | inconclusive: 79.4 µM [inhibitor, single point] | 
Cc1cc(C)n(-c2nc3ccccc3nc2N2CCN(c3cccc(C)c3C)CC2)n1 |  | inactive: 18.1%
CCN(CC)C(=O)CSc1nnc(-c2ccccc2)n1-c1ccccc1 | active: 28.2 µM | 
CCCC(=O)Nc1cccc(C(=O)Nc2ccccc2OCC)c1 |  | inactive: 25.8% [at 102 µM]
COCCCN1CN=C(Nc2nc3ccccc3o2)NC1 | inconclusive: 56.2 µM [inhibitor, partial curve, poor fit] | 
Cc1ccc(C(C(=O)NC2CCCCC2)N(C(=O)c2csnn2)C2CC2)cc1 (stereo not drawn) |  | inactive: -2.63% [at 102 µM]
COc1cccc(NC(=O)Cn2c(=O)n(CCc3ccccc3)c(=O)c3c4c(sc32)CN(C(C)=O)CC4)c1 | inconclusive: 4.47 µM [inhibitor, partial curve, poor fit] | 
COc1cc(CN2CCCCCC2)cc(Br)c1O | inconclusive: 22.4 µM [inhibitor, single point] | 
COc1cccc(-c2cncnc2NCc2ccccc2OC)c1 |  | inactive: -45.9% [at 0.501 µM]
CCOc1ccc(/C=N/NC(=O)Cc2csc(Nc3cccc(C(F)(F)F)c3)n2)cc1 | inconclusive: 22.4 µM [inhibitor, partial curve, poor fit] | 
O=S1(=O)CC(O)C(NCc2ccco2)C1 (stereo not drawn) |  | inactive: -10.3%
COc1ccc2nc(NC(=O)c3ccc(Br)s3)sc2c1 | inconclusive: 89.1 µM [inhibitor, single point] | 
CCCN(CCC)CCCNC(=O)Cn1cc2c(n1)-c1c(oc(C(=O)N3CCCC3)c1C)CC2 |  | inactive: -27.7%
Cc1cc(C(=O)CSc2nnnn2-c2ccccc2)c(C)n1-c1ccc2c(c1)OCO2 | inconclusive: 25.1 µM [inhibitor, single point] | 
CCOC(=O)c1cnc(-n2nc(C)cc2C)nc1Nc1cccc(C(=O)O)c1 | active: 10 µM | 
O=C(CSc1nnnn1-c1cccnc1)Nc1ccccc1F |  | inactive: 4.61% [at 102 µM]

Compound | Potency | activity, negative = inhibition
COc1ccc(C(=O)Cn2c(=O)oc3ccc(C)cc32)cc1 | inconclusive: 0.631 µM [inhibitor, partial curve, poor fit] | 
CCOC(=O)CNC(=O)CSc1nnc(-c2ccccc2OC)n1CC |  | inconclusive: -75.5% [inhibitor] [at 102 µM]
Cc1ccc(NC(=O)CC2SC(=O)N(c3ccccc3)C2=O)cc1 (stereo not drawn) | inconclusive: 8.91 µM [inhibitor, full curve, poor fit] | 
Cc1ccccc1C(=O)N1CCN(c2ccc([N+](=O)[O-])c(NCc3ccco3)c2)CC1 | inconclusive: 10 µM [inhibitor, full curve, poor fit] | 
Cc1cccc(OCc2nnc(SCC(=O)N3CCN(c4ccccc4)CC3)o2)c1C | inconclusive: 25.1 µM [inhibitor, single point] | 
Cc1coc2c1c(C)cc1oc(=O)c(CC(=O)NCCCCCC(=O)O)c(C)c12 |  | inactive: 25.9% [at 102 µM]
Cc1ccc(/C=C2/NC(=O)N(Cc3ccccc3)C2=O)o1 | inconclusive: 20 µM [inhibitor, single point] | 
CC1CC2(C)Oc3ccccc3CC2C(C)C1CNCCCN(C)C (stereo not drawn) | inconclusive: 79.4 µM [inhibitor, partial curve, poor fit] | 
COc1ccccc1CC(=O)NNS(=O)(=O)c1ccccc1[N+](=O)[O-] |  | inactive: 23.6% [at 102 µM]
CCS(=O)(=O)N1Cc2ccccc2CC1C(=O)N(C)Cc1ccc(OC)c(F)c1 (stereo not drawn) |  | inactive: 10.2% [at 102 µM]
O=C(CC1C(=O)NCCN1CC(c1ccccc1)c1ccccc1)NCCc1cn[nH]c1 (stereo not drawn) | active: 44.7 µM | 
c1csc(-c2cn3c(n2)SCC3)c1 | active: 17.8 µM | 
COc1ccc(CNC(=O)c2ccc(=O)oc2)cc1OC | inconclusive: 89.1 µM [inhibitor, single point] | 
Cc1ccc(C(C[N+](=O)[O-])c2c(N)n(C)c(=O)n(C)c2=O)cc1 (stereo not drawn) | inconclusive: 89.1 µM [inhibitor, single point] | 
Cc1ccc(CNS(=O)(=O)c2ccc(-c3cc(C(F)(F)F)on3)s2)cc1 |  | inactive: -5.27%
COc1ccc2cc(Br)ccc2c1CC(=O)N(C)C | inconclusive: 44.7 µM [inhibitor, partial curve] | 
Fc1ccc(CSc2nnc(-c3ccncc3)o2)cc1 | inconclusive: 44.7 µM [inhibitor, single point] | 
CCOC(=O)C1CCCN(Cc2nc(N)nc(Nc3ccc(Cl)cc3)n2)C1 (stereo not drawn) | inconclusive: 1.78 µM [inhibitor, partial curve, poor fit] | 
Cc1cccc(-n2c(CCn3nc(C)c([N+](=O)[O-])c3C)n[nH]c2=S)c1 | active: 0.447 µM | 
CC(Oc1ccc(Cl)cc1Cl)C(=O)Nc1ncccn1 (stereo not drawn) | inconclusive: 89.1 µM [inhibitor, single point] | 
COC(=O)Cn1c(=O)c2c(nc3n2CCN3c2ccc(F)cc2)n(C)c1=O |  | inactive: -33%
CN(C(=O)CN1C(=O)/C(=C/c2ccccc2F)SC1=S)C1CCS(=O)(=O)C1 (stereo not drawn) |  | inactive: 14.1% [at 102 µM]
CCOc1ccc(/C(C)=N/N2C(=O)C(CC(=O)Nc3ccc(OC)cc3[N+](=O)[O-])SC2=Nc2cccc(C)c2C)cc1 (stereo not drawn) | active: 35.5 µM | 
